Measurements reported in patent US20100204155A1, “USE OF THE PEPTIDE SFLLR-OH AND MURAMYL DIPEPTIDE AS THERAPEUTIC AGENTS” (priority 2007, published 2010).

Tested on: RAW 264.7 (Mouse leukaemic monocyte macrophage cell line) cells
Assay: Phagocytosis assay (Fluorescein-labeled Escherichia coli, flow cytometry)
Conditions: 10 micrograms per ml; RAW 264.7 cells; combination peptide 1:peptide 2 1.10 mole:0.90 mole

Ac-muramyl-Ala-D-Glu-NH2 [Peptide 2]
increase on the phagocytic activity of murine macrophages: 40.9%

Ser-Phe-Leu-Leu-Arg-OH (SFLLR-OH) [Peptide 1]
increase on the phagocytic activity of murine macrophages: 42.9%

Where no end group is shown, it is not given here.
